Laboratory results as given in the supplement of paper PMC12458215.
± gives the uncertainty stated by the source.

The sequences below were run on HEK293T (assay: plasma membrane surface immunostaining intensity (anti-HA, deep receptor scanning) (arbitrary fluorescence units); higher = higher plasma membrane expression). Settings: GPCR class: A.
With “MGDELAPCPVGTTAWPALIQLISKTPCMPQAASNTSLGLGDLRVPSSMLYWLFLPSSLLAAATLAVSPLLLVTILRNQRLRQEPHYLLPANILLSDLAYILLHMLISSSSLGGWELGRMACGILTDAVFAACTSTILSFTAIVLHTYLAVIHPLRYLSFMSHGAAWKAVALIWLVACCFPTFLIWLSKWQDAQLEEQGASYILPPSMGTQPGCGLLVIVTYTSILCVLFLCTALIANCFWRIYAEAKTSGIWGQGYSRARGTLLIHSVLITLYVSTGVVFSLDMVLTRYHHIDSGTHTWLLAANSEVLMMLPRAMLTYLYLLRYRQLLGMVRGHLPSRRHQAIFTIS [GPR148]” the “plasma membrane surface immunostaining intensity” value was 219 ± 21. With “MALNHTALPQDERLPHYLRDGDPFASKLSWEADLVAGFYLTIIGILSTFGNGYVLYMSSRRKKKLRPAEIMTINLAVCDLGISVVGKPFTIISCFCHRWVFGWIGCRWYGWAGFFFGCGSLITMTAVSLDRYLKICYLSYGVWLKRKHAYICLAAIWAYASFWTTMPLVGLGDYVPEPFGTSCTLDWWLAQASVGGQVFILNILFFCLLLPTAVIVFSYVKIIAKVKSSSKEVAHFDSRIHSSHVLEMKLTKVAMLICAGFLIAWIPYAVVSVWSAFGRPDSIPIQLSVVPTLLAKSAAMYNPIIYQVIDYKFACCQTGGLKATKKKSLEGFRLHTVTTVRKSSAVLEIHEEWE [OPN5]” the “plasma membrane surface immunostaining intensity” value was 6270 ± 74. “MERAPPDGPLNASGALAGEAAAAGGARGFSAAWTAVLAALMALLIVATVLGNALVMLAFVADSSLRTQNNFFLLNLAISDFLVGAFCIPLYVPYVLTGRWTFGRGLCKLWLVVDYLLCTSSAFNIVLISYDRFLSVTRAVSYRAQQGDTRRAVRKMLLVWVLAFLLYGPAILSWEYLSGGSSIPEGHCYAEFFYNWYFLITASTLEFFTPFLSVTFFNLSIYLNIQRRTRLRLDGAREAAGPEPPPEAQPSPPPPPGCWGCWQKGHGEAMPLHRYGVGEAAVGAEAGEATLGGGGGGGSVASPTSSSGSSSRGTERPRSLKRGSKPSASSASLEKRMKMVSQSFTQRFRLSRDRKVAKSLAVIVSIFGLCWAPYTLLMIIRAACHGHCVPDYWYETSFWLLWANSAVNPVLYPLCHHSFRRAFTKLLCPQKLKIQPHSSLEHCWK [HRH3]” was tested, and the “plasma membrane surface immunostaining intensity” value was 462 ± 29. With “MTNSSSTSTSSTTGGSLLLLCEEEESWAGRRIPVSLLYSGLAIGGTLANGMVIYLVSSFRKLQTTSNAFIVNGCAADLSVCALWMPQEAVLGLLPTGSAEPPADWDGAGGSYRLLRGGLLGLGLTVSLLSHCLVALNRYLLITRAPATYQALYQRRHTAGMLALSWALALGLVLLLPPWAPRPGAAPPRVHYPALLAAAALLAQTALLLHCYLGIVRRVRVSVKRVSVLNFHLLHQLPGCAAAAAAFPGAQHAPGPGGAAHPAQAQPLPPALHPRRAQRRLSGLSVLLLCCVFLLATQPLVWVSLASGFSLPVPWGVQAASWLLCCALSALNPLLYTWRNEEFRRSVRSVLPGVGDAAAAAVAATAVPAVSQAQLGTRAAGQHW [GPR88]” the “plasma membrane surface immunostaining intensity” value was 449 ± 30. In the case of “MMWGAGSPLAWLSAGSGNVNVSSVGPAEGPTGPAAPLPSPKAWDVVLCISGTLVSCENALVVAIIVGTPAFRAPMFLLVGSLAVADLLAGLGLVLHFAAVFCIGSAEMSLVLVGVLAMAFTASIGSLLAITVDRYLSLYNALTYYSETTVTRTYVMLALVWGGALGLGLLPVLAWNCLDGLTTCGVVYPLSKNHLVVLAIAFFMVFGIMLQLYAQICRIVCRHAQQIALQRHLLPASHYVATRKGIATLAVVLGAFAACWLPFTVYCLLGDAHSPPLYTYLTLLPATYNSMINPIIYAFRNQDVQKVLWAVCCCCSSSKIPFRSRSPSDV [GPR3]”, the “plasma membrane surface immunostaining intensity” value is reported as 400 ± 63. In the case of “MNSTGHLQDAPNATSLHVPHSQEGNSTSLQEGLQDLIHTATLVTCTFLLAVIFCLGSYGNFIVFLSFFDPAFRKFRTNFDFMILNLSFCDLFICGVTAPMFTFVLFFSSASSIPDAFCFTFHLTSSGFIIMSLKTVAVIALHRLRMVLGKQPNRTASFPCTVLLTLLLWATSFTLATLATLKTSKSHLCLPMSSLIAGKGKAILSLYVVDFTFCVAVVSVSYIMIAQTLRKNAQVRKCPPVITVDASRPQPFMGVPVQGGGDPIQCAMPALYRNQNYNKLQHVQTRGYTKSPNQLVTPAASRLQLVSAINLSTAKDSKAVVTCVIIVLSVLVCCLPLGISLVQVVLSSNGSFILYQFELFGFTLIFFKSGLNPFIYSRNSAGLRRKVLWCLQYIGLGFFCCKQKTRLRAMGKGNLEVNRNKSSHHETNSAYMLSPKPQKKFVDQACGPSHSKESMVSPKISAGHQHCGQSSSTPINTRIEPYYSIYNSSPSQEESSPCNLQPVNSFGFANSYIAMHYHTTNDLVQEYDSTSAKQIPVPSV [GPR75]”, the “plasma membrane surface immunostaining intensity” value is reported as 6160 ± 120. With “MGPTLAVPTPYGCIGCKLPQPEYPPALIIFMFCAMVITIVVDLIGNSMVILAVTKNKKLRNSGNIFVVSLSVADMLVAIYPYPLMLHAMSIGGWDLSQLQCQMVGFITGLSVVGSIFNIVAIAINRYCYICHSLQYERIFSVRNTCIYLVITWIMTVLAVLPNMYIGTIEYDPRTYTCIFNYLNNPVFTVTIVCIHFVLPLLIVGFCYVRIWTKVLAARDPAGQNPDNQLAEVRNFLTMFVIFLLFAVCWCPINVLTVLVAVSPKEMAGKIPNWLYLAAYFIAYFNSCLNAVIYGLLNENFRREYWTIFHAMRHPIIFFSGLISDIREMQEARTLARARAHARDQAREQDRAHACPAVEETPMNVRNVPLPGDAAAGHPDRASGHPKPHSRSSSAYRKSASTHHKSVFSHSKAASGHLKPVSGHSKPASGHPKSATVYPKPASVHFKADSVHFKGDSVHFKPDSVHFKPASSNPKPITGHHVSAGSHSKSAFSAATSHPKPTTGHIKPATSHAEPTTADYPKPATTSHPKPTAADNPELSASHCPEIPAIAHPVSDDSDLPESASSPAAGPTKPAASQLESDTIADLPDPTVVTTSTNDYHDVVVIDVEDDPDEMAV [GPR50]” the “plasma membrane surface immunostaining intensity” value was 6412 ± 50. With “MANTTGEPEEVSGALSPPSASAYVKLVLLGLIMCVSLAGNAILSLLVLKERALHKAPYYFLLDLCLADGIRSAVCFPFVLASVRHGSSWTFSALSCKIVAFMAVLFCFHAAFMLFCISVTRYMAIAHHRFYAKRMTLWTCAAVICMAWTLSVAMAFPPVFDVGTYKFIREEDQCIFEHRYFKANDTLGFMLMLAVLMAATHAVYGKLLLFEYRHRKMKPVQMVPAISQNWTFHGPGATGQAAANWIAGFGRGPMPPTLLGIRQNGHAASRRLLGMDEVKGEKQLGRMFYAITLLFLLLWSPYIVACYWRVFVKACAVPHRYLATAVWMSFAQAAVNPIVCFLLNKDLKKCLRTHAPCWGTGGAPAPREPYCVM [GPR173]” the “plasma membrane surface immunostaining intensity” value was 6404 ± 39. “MNGVSEGTRGCSDRQPGVLTRDRSCSRKMNSSGCLSEEVGSLRPLTVVILSASIVVGVLGNGLVLWMTVFRMARTVSTVCFFHLALADFMLSLSLPIAMYYIVSRQWLLGEWACKLYITFVFLSYFASNCLLVFISVDRCISVLYPVWALNHRTVQRASWLAFGVWLLAAALCSAHLKFRTTRKWNGCTHCYLAFNSDNETAQIWIEGVVEGHIIGTIGHFLLGFLGPLAIIGTCAHLIRAKLLREGWVHANRPKRLLLVLVSAFFIFWSPFNVVLLVHLWRRVMLKEIYHPRMLLILQASFALGCVNSSLNPFLYVFVGRDFQEKFFQSLTSALARAFGEEEFLSSCPRGNAPRE [GPR32]” was tested, and the “plasma membrane surface immunostaining intensity” value was 153 ± 42. For “MALNDCFLLNLEVDHFMHCNISSHSADLPVNDDWSHPGILYVIPAVYGVIILIGLIGNITLIKIFCTVKSMRNVPNLFISSLALGDLLLLITCAPVDASRYLADRWLFGRIGCKLIPFIQLTSVGVSVFTLTALSADRYKAIVRPMDIQASHALMKICLKAAFIWIISMLLAIPEAVFSDLHPFHEESTNQTFISCAPYPHSNELHPKIHSMASFLVFYVIPLSIISVYYYFIAKNLIQSAYNLPVEGNIHVKKQIESRKRLAKTVLVFVGLFAFCWLPNHVIYLYRSYHYSEVDTSMLHFVTSICARLLAFTNSCVNPFALYLLSKSFRKQFNTQLLCCQPGLIIRSHSTGRSTTCMTSLKSTNPSVATFSLINGNICHERYV [GRPR]”, the “plasma membrane surface immunostaining intensity” value was 1870 ± 250. “MSKRSWWAGSRKPPREMLKLSGSDSSQSMNGLEVAPPGLITNFSLATAEQCGQETPLENMLFASFYLLDFILALVGNTLALWLFIRDHKSGTPANVFLMHLAVADLSCVLVLPTRLVYHFSGNHWPFGEIACRLTGFLFYLNMYASIYFLTCISADRFLAIVHPVKSLKLRRPLYAHLACAFLWVVVAVAMAPLLVSPQTVQTNHTVVCLQLYREKASHHALVSLAVAFTFPFITTVTCYLLIIRSLRQGLRVEKRLKTKAVRMIAIVLAIFLVCFVPYHVNRSVYVLHYRSHGASCATQRILALANRITSCLTSLNGALDPIMYFFVAEKFRHALCNLLCGKRLKGPPPSFEGKTNESSLSAKSEL [GPR17]” was tested, and the “plasma membrane surface immunostaining intensity” value was 293 ± 22.

Same assay, conditions: GPCR class: B
With “MRPHLSPPLQQLLLPVLLACAAHSTGALPRLCDVLQVLWEEQDQCLQELSREQTGDLGTEQPVPGCEGMWDNISCWPSSVPGRMVEVECPRFLRMLTSRNGSLFRNCTQDGWSETFPRPNLACGVNVNDSSNEKRHSYLLKLKVMYTVGYSSSLVMLLVALGILCAFRRLHCTRNYIHMHLFVSFILRALSNFIKDAVLFSSDDVTYCDAHRAGCKLVMVLFQYCIMANYSWLLVEGLYLHTLLAISFFSERKYLQGFVAFGWGSPAIFVALWAIARHFLEDVGCWDINANASIWWIIRGPVILSILINFILFINILRILMRKLRTQETRGNEVSHYKRLARSTLLLIPLFGIHYIVFAFSPEDAMEIQLFFELALGSFQGLVVAVLYCFLNGEVQLEVQKKWQQWHLREFPLHPVASFSNSTKASHLEQSQGTCRTSII [SCTR]” the “plasma membrane surface immunostaining intensity” value was 2410 ± 500.

Same assay, conditions: GPCR class: C
“MGSLLALLALLLLWGAVAEGPAKKVLTLEGDLVLGGLFPVHQKGGPAEDCGPVNEHRGIQRLEAMLFALDRINRDPHLLPGVRLGAHILDSCSKDTHALEQALDFVRASLSRGADGSRHICPDGSYATHGDAPTAITGVIGGSYSDVSIQVANLLRLFQIPQISYASTSAKLSDKSRYDYFARTVPPDFFQAKAMAEILRFFNWTYVSTVASEGDYGETGIEAFELEARARNICVATSEKVGRAMSRAAFEGVVRALLQKPSARVAVLFTRSEDARELLAASQRLNASFTWVASDGWGALESVVAGSEGAAEGAITIELASYPISDFASYFQSLDPWNNSRNPWFREFWEQRFRCSFRQRDCAAHSLRAVPFEQESKIMFVVNAVYAMAHALHNMHRALCPNTTRLCDAMRPVNGRRLYKDFVLNVKFDAPFRPADTHNEVRFDRFGDGIGRYNIFTYLRAGSGRYRYQKVGYWAEGLTLDTSLIPWASPSAGPLPASRCSEPCLQNEVKSVQPGEVCCWLCIPCQPYEYRLDEFTCADCGLGYWPNASLTGCFELPQEYIRWGDAWAVGPVTIACLGALATLFVLGVFVRHNATPVVKASGRELCYILLGGVFLCYCMTFIFIAKPSTAVCTLRRLGLGTAFSVCYSALLTKTNRIARIFGGAREGAQRPRFISPASQVAICLALISGQLLIVVAWLVVEAPGTGKETAPERREVVTLRCNHRDASMLGSLAYNVLLIALCTLYAFKTRKCPENFNEAKFIGFTMYTTCIIWLAFLPIFYVTSSDYRVQTTTMCVSVSLSGSVVLGCLFAPKLHIILFQPQKNVVSHRAPTSRFGSAAARASSSLGQGSGSQFVPTVCNGREVVDSTTSSL [GRM2]” was tested, and the “plasma membrane surface immunostaining intensity” value was 6450 ± 91. With “MFVASERKMRAHQVLTFLLLFVITSVASENASTSRGCGLDLLPQYVSLCDLDAIWGIVVEAVAGAGALITLLLMLILLVRLPFIKEKEKKSPVGLHFLFLLGTLGLFGLTFAFIIQEDETICSVRRFLWGVLFALCFSCLLSQAWRVRRLVRHGTGPAGWQLVGLALCLMLVQVIIAVEWLVLTVLRDTRPACAYEPMDFVMALIYDMVLLVVTLGLALFTLCGKFKRWKLNGAFLLITAFLSVLIWVAWMTMYLFGNVKLQQGDAWNDPTLAITLAASGWVFVIFHAIPEIHCTLLPALQENTPNYFDTSQPRMRETAFEEDVQLPRAYMENKAFSMDEHNAALRTAGFPNGSLGKRPSGSLGKRPSAPFRSNVYQPTEMAVVLNGGTIPTAPPSHTGRHLW [GPRC5B]” the “plasma membrane surface immunostaining intensity” value was 6190 ± 84.
